The text below walks through data of the supplement of paper PMC4967469.

Holding throughout (test): Viability of human cancer cell lines after 72 h of drug (GDSC screen)
Compound in one assay: COC(=O)[C@H](CCSC)NC(=O)c1ccc(NC[C@@H](N)CS)cc1-c1ccccc1 [FTI-277]
As to conditions: top dose 1.024 µM; top dose inferred. On the procedure:
(§1)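 Human cancer cell lines in 384-well plates, medium with 10% serum, drug for 72 h over a 256-fold dose range (nine 2-fold or five 4-fold steps up to the top dose). Adherent lines were fixed and stained with the nucleic acid dye Syto60, suspension lines read with resazurin; signal relative to control wells, capped at 0 and 100%. One two-parameter sigmoid per drug and line, fitted in a mixed model over all curves with the slope shared within a line.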

Compound in the next assay: COCC[n+]1c2c(n(Cc3cnccn3)c1C)C(=O)c1ccccc1C2=O [YM155]
As to conditions: top dose 5.12 µM. On the procedure:
as §1

Compound in another assay: C[C@]1(O)C[C@@H](c2nc(-c3ccc4ccc(-c5ccccc5)nc4c3)c3c(N)nccn32)C1 [OSI-906]
As to conditions: top dose 2.56 µM; top dose inferred. On the procedure: as §1

Compound in another assay: CN1CCN(c2ccc([N+](=O)[O-])c3no[n+]([O-])c23)CC1 [NSC-207895]
As to conditions: top dose 20 µM; top dose inferred. On the procedure:
as §1

Compound in another assay: Cc1ccc(C(=O)N(CCCN)[C@@H](c2nc3cc(Cl)ccc3c(=O)n2Cc2ccccc2)C(C)C)cc1 [SB-715992]
As to conditions: top dose 0.128 µM; top dose inferred. On the procedure: as §1

Compound in another assay: Cc1sc2c(c1C)C(c1ccc(Cl)cc1)=N[C@@H](CC(=O)OC(C)(C)C)c1nnc(C)n1-2 [JQ1]
On the procedure:
as §1

Compound in a further assay: O=C(/C=C/c1cccc(S(=O)(=O)Nc2ccccc2)c1)NO [Belinostat]
The following applies: top dose 20 µM; top dose inferred. On the procedure: as §1

Compound in a further assay: c1ccc2c(CCNc3ccc(Nc4ccncc4)cc3)c[nH]c2c1 [JNJ-26854165]
As to conditions: top dose 10 µM. On the procedure:
as §1

Where [1] appears, read: top dose 1 µM, screen: GDSC drug entry 1218, top dose inferred.
The mark [2] stands for this setting: top dose 2.56 µM, screen: GDSC drug entry 163.

Lines with a small IC50 respond at low doses; a limit (>, <) means that the fit lies beyond the doses tested. For AUC the same curve is integrated over the 256-fold range of doses and scaled to a fraction; the more sensitive the line, the further below 1. For part of these data: Any top dose called inferred was derived from the fitted curves, not read from the paper. For part of these data: Drugs with an entry number were screened twice under separate entries, and the two screens often disagree. Some results are limits rather than exact numbers.

One may read the IC50 as the midpoint of a concentration-inhibition curve. On to 769-P (kidney, adherent), for which the AUC with FTI-277 is 0.976; with YM155, 0.031; with OSI-906, 0.954; with NSC-207895 it was 0.858; in the assay with SB-715992 it was 0.596; with JQ1 (setting [1]), 0.972. For the same cell line, the results for the AUC with JQ1 (setting [2]) and with Belinostat were 0.594 and 0.35, respectively. Moreover, the IC50 with FTI-277 was over 1.02 µM; with YM155 it was under 0.02 µM; with OSI-906 it was over 2.56 µM; with NSC-207895 it was 18.8 µM; with SB-715992 it was 0.015 µM; with JQ1 (setting [1]), over 1 µM. The values for the IC50 with JQ1 (setting [2]) and in the assay with Belinostat were 0.297 µM and 0.461 µM, respectively.

As to BICR31 (head and neck, adherent), the AUC in the assay with FTI-277 came to 0.972; with YM155, 0.034; in the assay with OSI-906, 0.947; with NSC-207895 it was 0.921; in the assay with SB-715992, 0.968; with JQ1 (setting [2]), 0.831. In addition, the AUC with Belinostat turned out to be 0.625. Besides, the IC50 is over 1.02 µM with FTI-277; under 0.02 µM in the assay with YM155; over 2.56 µM with OSI-906; over 20 µM with NSC-207895; over 0.128 µM with SB-715992; 1.64 µM in the assay with JQ1 (setting [2]). Also, the concentration for half-maximal inhibition (IC50) in the assay with Belinostat amounted to 2.78 µM.

Consider “COR-L303 (small cell lung carcinoma, suspension)”, for which the AUC with YM155 was determined as 0.023; with NSC-207895, 0.732; with SB-715992 it was 0.922; in the assay with Belinostat, 0.1. Further, the 50% inhibitory concentration (IC50) with YM155 is under 0.02 µM; with NSC-207895, 5.56 µM; in the assay with SB-715992, over 0.128 µM; in the assay with Belinostat, under 0.0781 µM.

Regarding Caov-3 (ovary, adherent), the AUC was determined as 0.985 in the assay with FTI-277; 0.151 in the assay with YM155; 0.991 with OSI-906; 0.927 in the assay with NSC-207895; 0.788 with SB-715992; 0.949 in the assay with JQ1 (setting [2]). Also, the AUC with Belinostat was 0.687. In addition, the IC50 was over 1.02 µM with FTI-277; 0.0323 µM in the assay with YM155; over 2.56 µM with OSI-906; over 20 µM with NSC-207895; 0.0491 µM with SB-715992; over 2.56 µM with JQ1 (setting [2]). Further, the IC50 with Belinostat stood at 3.86 µM.

Regarding KOSC-2 (head and neck, adherent), the AUC stood at 0.971 with FTI-277; 0.108 in the assay with YM155; 0.979 with OSI-906; 0.985 with NSC-207895; 0.649 with JNJ-26854165; 0.978 in the assay with JQ1 (setting [1]). Moreover, the AUC in the assay with JQ1 (setting [2]) worked out at 0.546; with Belinostat, 0.424. For the same cell line, the IC50 with FTI-277 was over 1.02 µM; in the assay with YM155, under 0.02 µM; with OSI-906, over 2.56 µM; with NSC-207895, over 20 µM; in the assay with JNJ-26854165, 1.65 µM; with JQ1 (setting [1]), over 1 µM. The half-maximal inhibitory concentration (IC50) with JQ1 (setting [2]) turned out to be 0.215 µM; with Belinostat, 0.765 µM.

As to MKN45 (stomach, adherent), the AUC with FTI-277 came to 0.983; with YM155, 0.269; in the assay with OSI-906, 0.971; with NSC-207895, 0.976; with SB-715992, 0.89; with JNJ-26854165, 0.874. Also, the AUC with Belinostat was 0.867. The IC50 with FTI-277 is over 1.02 µM; with YM155, 0.0582 µM; with OSI-906, over 2.56 µM; in the assay with NSC-207895, over 20 µM; with SB-715992, over 0.128 µM; with JNJ-26854165, over 10 µM. Also, the IC50 with Belinostat was over 20 µM.

Consider “NCI-H1299 (large cell lung carcinoma, adherent)”, for which the AUC with FTI-277 was 0.965; with YM155 it was 0.2; in the assay with OSI-906, 0.883; with NSC-207895, 0.978; with JNJ-26854165, 0.876. Further, the 50% inhibitory concentration (IC50) with FTI-277 is over 1.02 µM; in the assay with YM155, 0.0325 µM; in the assay with OSI-906, over 2.56 µM; in the assay with NSC-207895, over 20 µM; in the assay with JNJ-26854165, over 10 µM.

Consider “NCI-H2228 (lung adenocarcinoma, adherent)”, for which the AUC with FTI-277 came out at 0.945; in the assay with YM155, 0.29; in the assay with OSI-906, 0.844; with NSC-207895, 0.971; in the assay with SB-715992, 0.932; in the assay with JQ1 (setting [1]), 0.97. The figures for the AUC in the assay with JQ1 (setting [2]) and in the assay with Belinostat were 0.832 and 0.723, respectively. In addition, the concentration for half-maximal inhibition (IC50) was over 1.02 µM in the assay with FTI-277; 0.0597 µM in the assay with YM155; over 2.56 µM with OSI-906; over 20 µM with NSC-207895; over 0.128 µM with SB-715992; over 1 µM with JQ1 (setting [1]). In addition, the IC50 is over 2.56 µM with JQ1 (setting [2]) and 7.57 µM in the assay with Belinostat.

In the case of SNU-175 (large intestine, suspension), the AUC with YM155 stood at 0.113; with NSC-207895, 0.886; with SB-715992 it was 0.655; with Belinostat, 0.271. The half-inhibitory concentration (IC50) in the assay with YM155 is under 0.02 µM; in the assay with NSC-207895, 19.9 µM; with SB-715992, 0.021 µM; in the assay with Belinostat, 0.294 µM.

Consider SNU-398 (liver, adherent), for which the AUC came out at 0.763 with FTI-277; 0.028 with YM155; 0.902 with OSI-906; 0.584 with NSC-207895; 0.611 with SB-715992; 0.906 with JQ1 (setting [1]). Moreover, the AUC stood at 0.514 with JQ1 (setting [2]) and 0.41 with Belinostat. The half-inhibitory concentration (IC50) with FTI-277 was 0.382 µM; with YM155 it was under 0.02 µM; with OSI-906, over 2.56 µM; with NSC-207895, 2.14 µM; with SB-715992, 0.0164 µM; with JQ1 (setting [1]) it was over 1 µM. In addition, the IC50 in the assay with JQ1 (setting [2]) amounted to 0.175 µM; with Belinostat, 0.7 µM.
